Measurements reported in the supplement of paper PMC8728848.
Some of the results follow.

Assays:
Test in all cases: glycan array binding signal (z-score within array); higher = stronger binding
Details in all cases: glycan notation: IUPAC condensed, linker removed
Neu5Ac(a2-8)Neu5Ac = molecular target: Neu5Ac(a2-8)Neu5Ac
Outline: (§1)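 From the Consortium for Functional Glycomics database, 3228 arrays were curated, keeping only those whose protein sequence was available. Binding is given as a within-array Z-score averaged across arrays sharing a protein sequence and across linkers. Negative Z-scores can be read as non-binding.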

[1] = molecular target: Neu5Ac(a2-8)Neu5Ac(a2-3)Gal(b1-3)GalNAc(b1-4)[Neu5Ac(a2-3)]Gal(b1-4)Glc
Outline: as §1

[2] = molecular target: Neu5Ac(a2-8)Neu5Ac(a2-3)Gal(b1-3)GalNAc(b1-4)[Neu5Ac(a2-8)Neu5Ac(a2-3)]Gal(b1-4)Glc
Outline: as §1

[3] = molecular target: Neu5Ac(a2-8)Neu5Ac(a2-3)Gal(b1-4)Glc
Outline: as §1

[4] = molecular target: Neu5Ac(a2-8)Neu5Ac(a2-3)Gal(b1-4)GlcNAc
Outline: as §1

[5] = molecular target: Neu5Ac(a2-8)Neu5Ac(a2-3)[Gal(b1-3)GalNAc(b1-4)]Gal(b1-4)Glc
Outline: as §1

[6] = molecular target: Neu5Ac(a2-8)Neu5Ac(a2-3)[GalNAc(b1-4)]Gal(b1-4)Glc
Outline: as §1

[7] = molecular target: Neu5Ac(a2-8)Neu5Ac(a2-8)Neu5Ac
Outline: as §1

[8] = molecular target: Neu5Ac(a2-8)Neu5Ac(a2-8)Neu5Ac(a2-3)Gal(b1-4)Glc
Outline: as §1

[9] = molecular target: Neu5Ac(a2-8)Neu5Ac(a2-8)Neu5Ac(a2-3)[Gal(b1-3)GalNAc(b1-4)]Gal(b1-4)Glc
Outline: as §1

[10] = molecular target: Neu5Ac(a2-8)Neu5Ac(a2-8)Neu5Ac(a2-3)[GalNAc(b1-4)]Gal(b1-4)Glc
Outline: as §1

[11] = molecular target: Neu5Ac(a2-8)Neu5Ac(a2-8)Neu5Ac(a2-8)Neu5Ac(a2-3)[GalNAc(b1-4)]Gal(b1-4)Glc
Outline: as §1

[12] = molecular target: Neu5Ac(a2-8)Neu5Gc(a2-3)Gal(b1-4)GlcNAc
Outline: as §1

[13] = molecular target: Neu5Ac(b2-6)Gal(b1-4)GlcNAc
Outline: as §1

Neu5Ac(b2-6)GalNAc = molecular target: Neu5Ac(b2-6)GalNAc
Outline: as §1

[14] = molecular target: Neu5Ac9Ac(a2-3)Gal(b1-3)GlcNAc
Outline: as §1

[15] = molecular target: Neu5Ac9Ac(a2-3)Gal(b1-4)GlcNAc
Outline: as §1

[16] = molecular target: Neu5Ac9Ac(a2-6)Gal(b1-4)GlcNAc
Outline: as §1

[17] = molecular target: Neu5Gc(a2-3)Gal(b1-3)GlcNAc
Outline: as §1

[18] = molecular target: Neu5Gc(a2-3)Gal(b1-3)[Fuc(a1-4)]GlcNAc
Outline: as §1

Neu5Gc(a2-3)Gal(b1-4)Glc = molecular target: Neu5Gc(a2-3)Gal(b1-4)Glc
Outline: as §1

[19] = molecular target: Neu5Gc(a2-3)Gal(b1-4)GlcNAc
Outline: as §1

[20] = molecular target: Neu5Gc(a2-3)Gal(b1-4)GlcNAc(b1-3)Gal(b1-4)GlcNAc(b1-2)Man(a1-3)[Neu5Gc(a2-3)Gal(b1-4)GlcNAc(b1-3)Gal(b1-4)GlcNAc(b1-2)Man(a1-6)]Man(b1-4)GlcNAc(b1-4)GlcNAc
Outline: as §1

[21] = molecular target: Neu5Gc(a2-3)Gal(b1-4)[Fuc(a1-3)]GlcNAc
Outline: as §1

[22] = molecular target: Neu5Gc(a2-6)Gal(b1-4)GlcNAc
Outline: as §1

Neu5Gc(a2-6)GalNAc = molecular target: Neu5Gc(a2-6)GalNAc
Outline: as §1

[23] = molecular target: Neu5Gc(a2-8)Neu5Ac(a2-3)Gal(b1-4)GlcNAc
Outline: as §1

[24] = molecular target: Neu5Gc(a2-8)Neu5Gc(a2-3)Gal(b1-4)GlcNAc
Outline: as §1

[25] = molecular target: Neu5Gc(a2-8)Neu5Gc(a2-3)Gal(b1-4)GlcNAc(b1-3)Gal(b1-4)GlcNAc
Outline: as §1

[26] = molecular target: Neu5Gc(a2-8)Neu5Gc(a2-6)Gal(b1-4)GlcNAc
Outline: as §1

[27] = molecular target: Neu5Gc(b2-6)Gal(b1-4)GlcNAc
Outline: as §1

B1: FliD (Clostridium difficile) (protein)
chain: MSSISPVRVTGLSGNFDMEGIIEASMIRDKEKVNKAKQDQQIVKWKQEIYRDIIKESKNLYDKYLNGDSPNSITNKKAYSATRITSSDESIIVAKGSAGAEKINYQFAVSQMAEPAKVTIKLNSSDPIVQQFPPNASGASSLNIGGVNIPISEQDTTSTIVSKINSLCADNDIRASYSEMTGELIISRKQTGSSSDIDLKVIGNDSLAGQIASDNGITFTTDASGTKSAVVYGKNLEADVTDDQGRVTHISKEQNSFKIDNIDYNVNSKGSAKLVSVTDTEEATKNMKAFVDDYNALMDKVYGLVTTKKSKDYPPLTDEQKDDMTTEEIEKWEKKAKEGILRNDDELRAFVEDIQSMFFGDADTIIALRKLGISEHENYNKKGQISFNADTFSKALIDDSDKVYKALAGYSSNYDDKGMFEKLKKIVFEYSGSSASKLTKKAGMENSSSASQNVYSKQIAEQERNISRLVEKMNDKEKRLYAKYSALESLLNKYSSQMNYFSQAQGN
- glycan array binding signal (z-score) (Neu5Ac(a2-8)Neu5Ac): -0.232
- glycan array binding signal (z-score) [1]: -0.267
- glycan array binding signal (z-score) [2]: -0.136
- glycan array binding signal (z-score) [3]: -0.235
- glycan array binding signal (z-score) [4]: -0.213
- glycan array binding signal (z-score) [5]: -0.122
- glycan array binding signal (z-score) [6]: 0.09
- glycan array binding signal (z-score) [7]: -0.239
- glycan array binding signal (z-score) [8]: -0.235
- glycan array binding signal (z-score) [9]: -0.136
- glycan array binding signal (z-score) [10]: -0.194
- glycan array binding signal (z-score) [11]: -0.21
- glycan array binding signal (z-score) [12]: -0.247
- glycan array binding signal (z-score) [13]: -0.242
- glycan array binding signal (z-score) (Neu5Ac(b2-6)GalNAc): -0.259
- glycan array binding signal (z-score) [14]: 0.957
- glycan array binding signal (z-score) [15]: -0.108
- glycan array binding signal (z-score) [16]: -0.19
- glycan array binding signal (z-score) [17]: -0.166
- glycan array binding signal (z-score) [18]: -0.128
- glycan array binding signal (z-score) (Neu5Gc(a2-3)Gal(b1-4)Glc): -0.194
- glycan array binding signal (z-score) [19]: -0.19
- glycan array binding signal (z-score) [20]: -0.067
- glycan array binding signal (z-score) [21]: -0.112
- glycan array binding signal (z-score) [22]: -0.077
- glycan array binding signal (z-score) (Neu5Gc(a2-6)GalNAc): -0.104
- glycan array binding signal (z-score) [23]: -0.273
- glycan array binding signal (z-score) [24]: -0.191
- glycan array binding signal (z-score) [25]: 0.093
- glycan array binding signal (z-score) [26]: -0.194
- glycan array binding signal (z-score) [27]: -0.217
